Common to all, as to test: Primary Screen for Target Class Profiling of Small Molecule Inhibitors of Methyltransferases
Assay [1] addresses Glycine N-methyltransferase (Homo sapiens) (UniProt Q14749). Conditions: purified enzyme, MTase-Glo SAH luminescence; measured here: GNMT inhibition; at 40 µM; stronger effect = lower value. An excerpt:
(§1) PI: Matthew D. Hall Ph.D. and Quinlin M. Hanson Ph.D.
(§2) National Center for Advancing Translational Sciences (NCATS)
(§3) National Institute of Health (NIH), Rockville, MD
(§4) Target class profiling (TCP) is a chemical biology approach amenable to investigating understudied biological targets. TCP is achieved by developing a generalizable assay platform and applying it to screen a curated set of compound libraries against representative members of a target class. Small molecule methyltransferases (SMMTase) are a subclass of methyltransferase that act on metabolites to modulate signaling pathways, metabolize xenobiotics, or balance the available methyl pool. We screened four curated libraries totaling 27,574 unique compounds against the SMMTases nicotinamide N-methyltransferase (NNMT), phenylethanolamine N-methyltransferase (PNMT), histamine N-methyltransferase (HNMT), glycine N-methyltransferase (GNMT), catechol O-methyltransferase (COMT), and guanidinoacetate N-methyltransferase (GAMT). The data generated by this TCP can be leveraged for informed tool molecule development. For example, in the associated publication we identified a chemotype of HNMT-selective inhibitors. Additionally, we identified a putative SMMTase-selective inhibitor with potential as a tool molecule for studying broader methyltransferase biology.
(§5) High-through put screening assays were developed at the National Center for Advancing Translational Science (NCATS) for the enzymes NNMT, PNMT, HNMT, GNMT, COMT, and GAMT. Enzymatic activity was measured as a function of SAM cofactor conversion using the MTase Glo kit (Promega) for all enzymes. All assays were performed in 1536-well format with substrates and SAM concentrations at KM values. Enzyme concentration and assay timing were optimized for 10-20% SAM conversion. Initial screening of 27,574 compounds was done as single-point assays using the highest compound concentration (40 uM). […] These compounds were replated in 11-point dose response and assayed against NNMT, PNMT, HNMT, GNMT, COMT, GAMT, and a counter-assay. The IC50 and efficacy (maximal response) values were determined for each dose-response curve. These values are also accounted for in the area under the curve (AUC) values.
(§6) PROTOCOL TABLE (as described by Inglese J, Shamu CE and Guy RK. 2007)
(§7) SEQUENCE No. (e.g., 1, 2, 3, etc.); […] (e.g., Cells, Incubation, Reagent, etc.); VALUE; DESCRIPTION.
(§8) 1; Reagent; 2 uL; SMMTase Enzyme (2x) in reaction buffer, columns 1- 48.
(§9) 2; Reagent; 1 uL; SAM (4x) in reaction buffer, columns 1-48.
(§10) 3; Controls; 23 nL; DMSO in column 4; sinefungin in DMSO (0 uM - 40 uM) in 7-point 1:2 dilution series (n = 2) in column 2.
(§11) 4; Compounds; 23 nL; Columns 5-48.
(§12) 5; Reagent; 1 uL; Substrate (4x) in reaction buffer, columns 2-48.
(§13) 6; Time; 20-30 min; Incubation.
(§14) 7; Reagent; 1 uL; MTase-Glo reagent (5X), columns 1-48.
(§15) 8; Time; 30 min; Incubation.
(§16) 9; Reagent; 5 uL; MTase-Glo Detection reagent, columns 1-48.
(§17) 10; Time; 30 min; Incubation, luminescence evolution.
(§18) 11; Detection; Luminescence; ViewLux uHTS Microplate Imager (PerkinElmer).
(§19) NOTES (numbers refer to Sequence numbers above)
(§20) 1, 2, 5. White Medium Binding Greiner 1536-well plates (Cat #789175-F, Greiner Bio-One, Monroe, NC); Reaction buffer: 50 mM Tris, pH 8.0, 3 mM MgCl2, 1 mM EDTA, 50 mM NaCl, 1 mM DTT, and 0.1 mg/mL BSA. Evaporation was prevented by covering assay plates with metal lids containing holes to allow gas diffusion.
(§21) 1. Six SMMTase were profiled: HNMT, GNMT, PNMT, COMT, NNMT, GAMT
(§22) 5. The corresponding substrate was used for each enzyme: HNMT - 5.3 uM Histamine; GNMT - >500 uM Glycine; PNMT - 16.2 uM Norephinephrine; COMT - 13.7 uM Norephinephrine; NNMT - 3.8 uM Nicotinamide; GAMT - 2.5 uM Guanidinoacetate.6, 8, 10. Room temperature
(§23) 6. Final reaction conditions: 10 nM COMT, 5 uM SAM, 15 uM norepinephrine, 50 mM Tris, pH 8.0, 3 mM MgCl2, 1 mM EDTA, 50 mM NaCl, 1 mM DTT, and 0.1 mg/mL BSA; refer to tables 2 and S1 for specific timing.
8. […]

Assay [2] has as its target Guanidinoacetate N-methyltransferase (Homo sapiens) (UniProt Q14353). As to conditions: purified enzyme, MTase-Glo SAH luminescence; measured here: GAMT inhibition; at 40 µM; stronger effect = lower value.
Excerpt: as §1, §2, §3, §4, §5, §6, §7, §8, §9, §10, §11, §12, §13, §14, §15, §16, §17, §18, §19, §20, §21, §22, §23
8. […]

Assay [3] deals with Histamine N-methyltransferase (Homo sapiens) (UniProt P50135). As to conditions: purified enzyme, MTase-Glo SAH luminescence; measured here: HNMT inhibition; at 40 µM; stronger effect = lower value.
Excerpt: as §1, §2, §3, §4, §5, §6, §7, §8, §9, §10, §11, §12, §13, §14, §15, §16, §17, §18, §19, §20, §21, §22, §23
8. […]

Assay [4] concerns the target Nicotinamide N-methyltransferase (Homo sapiens) (UniProt P40261). As to conditions: purified enzyme, MTase-Glo SAH luminescence; measured here: NNMT inhibition; at 40 µM; stronger effect = lower value.
Excerpt: as §1, §2, §3, §4, §5, §6, §7, §8, §9, §10, §11, §12, §13, §14, §15, §16, §17, §18, §19, §20, §21, §22, §23
8. […]

For assay [5], the target named is Phenylethanolamine N-methyltransferase (Homo sapiens) (UniProt P11086). As to conditions: purified enzyme, MTase-Glo SAH luminescence; measured here: PNMT inhibition; at 40 µM; stronger effect = lower value.
Excerpt: as §1, §2, §3, §4, §5, §6, §7, §8, §9, §10, §11, §12, §13, §14, §15, §16, §17, §18, §19, §20, §21, §22, §23
8. […]

From PubChem BioAssay AID1745853 (National Center for Advancing Translational Sciences (NCATS), 2022) come the findings set out here.

The structures appear in SMILES notation. The list shows a part of the results. These are further read-outs of the screen, such as a control signal, another cell line or another target. No call is given for them.
On the % scale 0 is the no-effect control and ±100 the full control effect.

Regarding `COCCN1C(=O)CC[C@]2(C(=O)NCc3cccs3)CCCC[C@@H]12`, the activity change, negative = inhibition is -0.369% in assay [1]; -4.04% in assay [2]; 0.336% in assay [3]; -1.45% in assay [4]; -1.95% in assay [5].
On the same counts, the results for `COc1ccc(CN2C(=O)c3ccc(-c4ccco4)n3CC2(C)C(=O)NC2CCCCC2)c(OC)c1OC` (stereo not given) are -7.06%, 4.05%, -4.21%, -3.21% and -1.78%.
In the same order, the values of `C[S+](=O)([O-])N1CC2(CCCCN2Cc2ccccn2)Cc2ccccc21` (stereo not given) are -7.44%, -6.15%, -4.78%, -10.8% and 2.93%.
With `Cc1ncc(NC(=O)c2ccc(CN3CCN(C)CC3)c(C(F)(F)F)c2)cc1Nc1nccc(-c2cccnc2)n1`, the activity change, negative = inhibition was -1.13% in assay [1]; 23.7% in assay [2]; -2.17% in assay [3]; 7.03% in assay [4]; 3.9% in assay [5].
As for `Cc1ccc(Cn2nc3n(Cc4ccccc4)c(=O)c4ccc(C(=O)NC(C)C)cc4n3c2=O)cc1`, the activity change, negative = inhibition in assay [1] was 6.6%; in assay [2], 0%; in assay [3], 6.73%; in assay [4], 8.35%; in assay [5], 5.96%.
In the same order, the values of `CCC(C)NC(=O)c1ccc2c(=O)n(C)c3nnc(SCC(=O)Nc4ccc(F)cc4)n3c2c1` (stereo not given) are -0.434%, 4.48%, -1.22%, 1.52% and 1.9%.
On the same counts, the results for `CCCn1c(=O)c2cc(Cl)ccc2n2c(SCC(=O)Nc3cc(OC)cc(OC)c3)nnc12` are 7.36%, 0%, 10.6%, 0.709% and 9.98%.
On the same counts, the results for `CC1(C(=O)NC2CCCCC2)Cn2c(cc3sccc32)C(=O)N1Cc1ccccc1F` (stereo not given) are -0.882%, 0.378%, 2.43%, -0.905% and 2.58%.
For the compound `COc1ccccc1CCNC(=O)c1cc2n(n1)CC(C)(C(=O)NC1CCCCCC1)N(C)C2=O` (stereo not given), the activity change, negative = inhibition was 3.54% in assay [1]; 0% in assay [2]; 4.09% in assay [3]; 1.16% in assay [4]; 3.38% in assay [5].
In the same order, the values of `CN1C(=O)c2cc(C(=O)NCCCN3CCCCC3)nn2CC1(C)C(=O)NC1CCCCCC1` (stereo not given) are 2.08%, 2.33%, -2.77%, 2% and -0.502%.
In the same order, the values of `Cc1ccc(Cl)c(Nc2ccccc2C(=O)O)c1Cl` are -10.2%, 12.8%, 11.5%, -11.7% and 0.493%.
In the same order, the values of `Cc1ccc(CNC(=O)CCc2nnc3n(Cc4ccccc4)c(=O)c4ccccc4n23)cc1` are -6.53%, 0.176%, 9.34%, 2.98% and 3.16%.
On to `COc1ccc2c(c1)c(NC(C)=O)c1n2CC(C)(C(=O)NC2CCCC2)N(Cc2cccs2)C1=O` (stereo not given), for which the activity change, negative = inhibition in assay [1] was -9.94%; in assay [2], 0.111%; in assay [3] it was 0.908%; in assay [4] it was 5.33%; in assay [5], -0.577%.
On the same counts, the results for `CC(=O)OC1C(OC(=O)c2ccccc2)C2C(=C(C)CCC2(C)C)C23CCC(C)(C2)C(=O)CC13` (stereo not given) are 3.21%, -1.73%, 6.29%, -15.6% and 2.45%.
`COc1cccc(COC2CN(CCc3ccccc3)C(=O)CN(C(=O)CN3CCOC3=O)C2)c1` (stereo not given): the activity change, negative = inhibition in assay [1] is -5.46%; in assay [2] it was -5.96%; in assay [3], -3.55%; in assay [4], -10.3%; in assay [5], -11%.
In the same order, the values of `CN1C(=O)c2ccccc2-n2c(nc3ccccc3c2=O)/C1=C/c1ccccc1` are 3.6%, 6.55%, 5.99%, -9.55% and 5.92%.
In the same order, the values of `Cc1noc(-c2cn(C3CCN(C(=O)c4ccc(C)s4)CC3)nn2)n1` are -4.21%, -1.54%, 0.947%, -4.42% and 12.1%.
In the same order, the values of `CC(=O)O[C@@H](C[C@@H]1C=C(C)C(=O)O1)[C@H](C)[C@H]1CCC2[C@@]3(C)CC[C@H](O[C@@H]4O[C@H](CO)[C@@H](O)[C@H](O)[C@H]4O[C@@H]4O[C@@H](C)[C@H](O)[C@@H](O)[C@H]4O)C(C)(C)C3CC[C@@]2(C)[C@@]12COC(=O)C2` (stereo not given in full) are -7.31%, -7.53%, 0.314%, -18.1% and -12.1%.
For the compound `COc1ccccc1NC(=O)Cn1nc2n(Cc3ccc(C)cc3)c(=O)c3ccccc3n2c1=O`, the activity change, negative = inhibition was 2.72% in assay [1]; 0.932% in assay [2]; 6.5% in assay [3]; -1.4% in assay [4]; 2.12% in assay [5].
In the same order, the values of `COC(=O)c1ccc([C@@H]2Nc3c(OC)cc(OC)cc3[C@@H]3C=CC[C@@H]32)cc1` are -5.33%, 0%, 2.08%, -12.5% and -7.28%.
In the same order, the values of `CC(C)OCCCNC(=O)CCc1nnc2ccc(NCc3ccccc3Cl)nn12` are -4.39%, 1.03%, 0.936%, -3.65% and -1.58%.
On the same counts, the results for `CN(C)CC(O)c1cc2n(n1)CCCN(C(=O)c1cccn1C1CC1)C2` (stereo not given) are -3.85%, -3.37%, -2.33%, -3.38% and -2.13%.
Consider `CC1(C(=O)NC2CCCCCC2)Cn2c(ccc2-c2ccco2)C(=O)N1Cc1cccnc1` (stereo not given), for which the activity change, negative = inhibition in assay [1] is -3.72%; in assay [2], 0.18%; in assay [3], 6.26%; in assay [4] it was 0.946%; in assay [5], 0.511%.
On the same counts, the results for `CCCn1c(=O)c2ccc(C(=O)NC3CCCC3)cc2n2c(=O)n(C(C)C(=O)c3ccc(C)c(C)c3)nc12` (stereo not given) are -1.58%, 3.35%, -0.24%, -4.98% and -3.35%.
On the same counts, the results for `Cc1ccc(CN2CC(=O)N(Cc3ccc(F)cc3)c3ccccc3S2(=O)=O)cc1` are 7.58%, 0%, 12.6%, -8.63% and -3.56%.
In the same order, the values of `CCCNC(=O)N1CCOC[C@H](Oc2ccc(C(F)(F)F)cn2)C1` are -4.05%, -3.77%, -1.54%, -11.9% and -9.93%.
Consider `COC(=O)c1ncn2c1C(=O)N(Cc1ccco1)C(C)(C(=O)NC1CCCCCC1)C2` (stereo not given), for which the activity change, negative = inhibition in assay [1] came out at 3.31%; in assay [2] it was 0%; in assay [3], 8.11%; in assay [4] it was 6.63%; in assay [5], 4.7%.
In the same order, the values of `O=S(=O)(Cc1cccc(Cl)c1)NCCc1noc(-c2ccccc2)n1` are -5.08%, -5.23%, -4.92%, -10.7% and -7.91%.
On the same counts, the results for `CC1(C(=O)NC2CCCCCC2)Cn2c(ccc2-c2ccco2)C(=O)N1Cc1cccc(Cl)c1` (stereo not given) are -1.69%, 0%, 1.92%, -3.59% and -1.84%.
In the same order, the values of `O=C(NCc1nnc2n1CCCCC2)C1CC2(CCNCC2)CN1` (stereo not given) are 1.18%, 0.891%, 0.798%, 3.25% and -0.279%.
